Assay results from US20240317847A1 (Bayer, published 2024).
Positions count from the first letter of the chain named.

Assays:
murine IL-11 [1] = target: T1, murine IL-11 (mouse, UniProt P47873 22-199); assay: cell-based or functional assay
T1 sequence: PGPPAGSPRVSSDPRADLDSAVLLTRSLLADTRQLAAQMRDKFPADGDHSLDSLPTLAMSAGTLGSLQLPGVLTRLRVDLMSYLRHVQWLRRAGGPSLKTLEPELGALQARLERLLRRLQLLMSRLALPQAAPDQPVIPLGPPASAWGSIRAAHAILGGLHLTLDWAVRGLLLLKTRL

human IL-11 [2] = target: T2, human IL-11 (human, UniProt P20809 22-199); assay: cell-based or functional assay
T2 sequence: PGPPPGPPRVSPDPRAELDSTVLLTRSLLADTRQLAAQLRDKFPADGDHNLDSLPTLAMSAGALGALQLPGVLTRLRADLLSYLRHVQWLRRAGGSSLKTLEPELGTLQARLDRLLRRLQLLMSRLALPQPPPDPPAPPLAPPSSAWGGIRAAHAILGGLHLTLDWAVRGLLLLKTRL

murine IL-11 [3] = target: T1, murine IL-11; assay: SPR, antibody captured, IL-11 as analyte
Description: (§1) Antibodies were captured via anti-mouse Fc IgGs (“Mouse antibody capture kit, Order No. BR100383, Cytiva) covalently amine coupled to a Series S CM5 sensor chip (Cytiva). The amine coupling was carried out according to the manufacturer's instructions using 1-ethyl-3-(3-dimethylaminopropyl) carbodiimide hydrochloride (EDC), N-hydroxysuccinimide (NHS) and ethanolamine HCl, pH 8.5 (“Amine Coupling Kit” BR-1000-50, Cytiva.). Human IL-11 (Invigate, e.g., lot #C121021-19), and murine IL-11 (Invigate, e.g., lot #C210819-09) were used as analytes. […] Based on that experiment an IL-11 concentration range was chosen to optimally determine kinetics and affinity of anti-IL-11 antibodies in multicycle kinetics mode. The sensor surface was regenerated with glycine pH 1.7 after each antigen injection. Obtained sensorgrams were double referenced (subtraction of reference flow cell signal and buffer injection) and were fitted to a 1:1 Langmuir binding model to derive kinetic data using the Biacore T200 Evaluation software or the Biacore Insight software.
(§2) Deviations from closest human germlines in CDR regions and FW regions and potential CMC relevant residues in CDR regions were adjusted by site directed mutagenesis following standard molecular protocols or purchased from DNA synthesis providers. […]

human IL-11 [4] = target: T2, human IL-11; assay: SPR, antibody captured, IL-11 as analyte
Description: as §1, §2

murine IL-11 [5] = target: T1, murine IL-11; assay: SPR, antibody captured, IL-11 as analyte; remark: listed apart in the source
Description: as §1
(§3) For the 2nd round of germlining, single reversions were then combined on DNA level, expressed and purified as described in Example 15, and tested by SPR as described in Example 16.

human IL-11 [6] = target: T2, human IL-11; assay: SPR, antibody captured, IL-11 as analyte; remark: listed apart in the source
Description: as §1, §3

rat IL-11 [7] = target: T3, rat IL-11 (rat, UniProt Q99MF5 22-199); assay: cell-based or functional assay
T3 sequence: T1 sequence with S50N, L84F, G94A, V137A, I138V

human IL-11 [8] = target: T4, human IL-11 (human, UniProt P20809 22-199); assay: cell-based or functional assay; remark: listed apart in the source
T4 sequence: T2 sequence

murine IL-11 [9] = target: T5, murine IL-11 (mouse, UniProt P47873 22-199); assay: cell-based or functional assay; remark: listed apart in the source
T5 sequence: T1 sequence

cynomolgus IL-11 [10] = target: T6, cynomolgus IL-11 (cynomolgus, UniProt P20808 22-199); assay: cell-based or functional assay
T6 sequence: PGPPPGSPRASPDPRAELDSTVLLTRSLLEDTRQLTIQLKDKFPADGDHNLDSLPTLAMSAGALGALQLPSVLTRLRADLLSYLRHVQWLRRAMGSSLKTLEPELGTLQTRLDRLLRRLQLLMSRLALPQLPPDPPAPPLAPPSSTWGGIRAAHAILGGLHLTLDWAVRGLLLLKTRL

murine IL-11 [11] = target: T5, murine IL-11; assay: Tri-complex ELISA, mIL-11 + mIL-11Ra-Fc + mgp130-Fc, inhibition of complex formation
Description: In a first step, 25 μl of goat anti human IgG (Sigma, #12136), diluted 1:1000 in coating buffer (Candor, #121125) was coated on the plate at 4° C. overnight. Next day, the plate was washed one time with 50 μl PBST and then blocked with 50 μl SmartBlock (Candor, #113125) for one hour at room temperature (RT). […] After three additional washes of the coated and blocked microtiter plate with PBS-T, 25 μl of each mixture were added and the assay plate was incubated for one hour at room temperature. After three additional washes, anti-mouse-gp130 biotinylated antibody (R&D, #BAF468) or anti-human gp130 biotinylated antibody (R&D, #BAF228), both 1:1000 in 10% SmartBlock PBS-T, was added and incubated for 1 hour at RT. After three additional washes, a Streptavidin-Peroxidase conjugate (Sigma, #S5512) 1:1000 in SmartBlock PBS-T was added and incubated for one hour at room temperature. After a final three washes, AmplexRed (Fisher Scientific, A12222), 1/1000 in PBS, 0,003% H₂O₂, was added as substrate and incubated for 15 min at RT in the dark. Then, the fluorescence was measured with a plate reader at 535/595 nm. Signals from dose responses were used to calculate IC50 values using GraphPad Prism software. Efficacy was calculated as [(signal measured at lowest antibody concentration−signal measured at the highest antibody concentration)×100] divided by (signal measured at lowest antibody concentration−signal measured in the absence of antibody at an IL11 concentration of 8.2E-11 [M]).
(§4) IgG converted antibodies were subjected to the experimental assay procedure described in Example 19 and IC50 [M], respectively efficacy (%) were calculated accordingly.

rat IL-11 [12] = target: T3, rat IL-11; assay: SPR (Biacore), 37 C, antibody captured via anti-Fc, IL-11 as analyte
Description: (§5) To assess the binding kinetics and affinity of anti-IL-11 bispecific antibodies as well as their species cross-reactivity profile, binding assays were conducted using surface plasmon resonance (SPR). […] Antibodies were captured either via anti-human Fc IgGs (“Human antibody capture kit”, Order No. BR100839, Cytiva) or via anti-mouse Fc IgGs (“Mouse antibody capture kit, Order No. BR100383, Cytiva) covalently amine coupled to a Series S CM5 sensor chip (Cytiva) depending on the isotype. The amine coupling was carried out according to the manufacturer's instructions using 1-ethyl-3-(3-dimethylaminopropyl) carbodiimide hydrochloride (EDC), N-hydroxysuccinimide (NHS) and ethanolamine HCl, pH 8.5 (“Amine Coupling Kit” BR-1000-50, Cytiva.). Human, mouse, cynomolgus or rat IL-11 was used as analyte at several dilutions within the concentration range from 0.05-200 nM. For binding assays with only one concentration 200 nM IL-11 was used. The sensor surface was regenerated with glycine pH 1.7 after each antigen injection. Obtained sensorgrams were double referenced (subtraction of reference flow cell signal and buffer injection) and were fitted to a 1:1 Langmuir binding model to derive kinetic data using the Biacore T200 Evaluation software or the Biacore Insight software.
(§6) If no value is reported, there was either no binding or very low binding and multiphasic binding behavior.

human IL-11 [13] = target: T4, human IL-11; assay: as above
Description: as §5, §6

murine IL-11 [14] = target: T5, murine IL-11; assay: as above
Description: as §5, §6

cynomolgus IL-11 [15] = target: T6, cynomolgus IL-11; assay: as above
Description: as §5, §6

human IL-11 [16] = target: T4, human IL-11; assay: Tri-complex ELISA, hIL-11 + mIL-11Ra-Fc + hgp130-Fc, inhibition of complex formation
Description: In the Tri-complex ELISA format IL-11 antibodies are tested for their ability to inhibit the formation of a complex consisting of murine or human gp130-Fc fusion protein, with murine or human IL-11, and a murine IL11RA-Fc fusion protein. The assay format was adapted according to FIG. 18 (a, b), depending on whether murine or human IL-11 IgG antibodies were tested.
as §4

[17] = target: T7, human IL-11 (Invigate, e.g., lot #C121021-19) (human, UniProt P20809 22-199); assay: competition ELISA on biotinylated human IL-11 captured on a streptavidin plate; competitor: murine IgG TPP-18068 at constant 1E-08 M, detected with anti-mouse-POD
T7 construct: Bought protein; also called hIL-11; hIL11
T7 sequence: T2 sequence

B1: TPP-16478 (antibody, human IgG1, lambda)
heavy: EVQLLESGGGLVQPGGSLRLSCAASGFTFSSYGMHWVRQAPGKGLEWVSVISYDGSYKYYADSVKGRFTISRDNSKNTLYLQMNSLRAEDTAVYYCAAGVPDYWGQGTLVTVSS[omitted - human IgG1 constant region]
light: QSVLTQPPSASGTPGQRVTISCTGSSSNIGAGYDVHWYQQLPGTAPKLLIYSNNERPSGVPDRFSGSKSGTSASLAISGLRSEDEADYYCAAWDDSLNGPVFGGGTKLTVLGQPKAAPSVTLFPPSSEELQANKATLVCLISDFYPGAVTVAWKADSSPVKAGVETTTPSKQSNNKYAASSYLSLTPEQWKSHRSYSCQVTHEGSTVEKTVAPTECS
notes: hIgG1, Lambda; also called WT
Efficacy (%), RGA (murine IL-11 [1]): 90.8% | IC50, RGA (murine IL-11 [1]): 960 pM | Efficacy (%), RGA (human IL-11 [2]): 51.4% | IC50, RGA (human IL-11 [2]): 5600 pM | Kd (murine IL-11 [3]): 830 pM | Kd (human IL-11 [4]): 6600 pM | Kd (murine IL-11 [5]): 600 pM | Kd (human IL-11 [6]): 7300 pM

B2: TPP-29680 (antibody, human IgG1, lambda)
heavy: QVQLVESGGGVVQPGRSLRLSCAASGFTFSHYDMHWVRQAPGKGLEWVAVISYHGSVKFYADSVKGRFTISRDNSKNTLYLQMNSLRAEDTAVYYCARTPGFHFDYWGQGTLVTVSSASTKGPSVFPLAPSSKSTSGGTAALGCLVKDYFPEPVTVSWNSGALTSGVHTFPAVLQSSGLYSLSSVVTVPSSSLGTQTYICNVNHKPSNTKVDKKVEPKSCDKTHTCPPCPAPPVAGPSVFLFPPKPKDTLMISRTPEVTCVVVGVSHEDPEVKFNWYVDGVEVHNAKTKPREEQYNSTYRVVSVLTVLHQDWLNGKEYKCKVSNKQLPSPIEKTISKAKGQPREPQVYTLPPSRDELTKNQVSLTCLVKGFYPSDIAVEWESNGQPENNYKTTPPVLDSDGSFFLYSKLTVDKSRWQQGNVFSCSVMHEALHNHYTQKSLSLSPGK
light: QSVLTQPPSASGTPGQRVTISCSGSSSNIGSNYVSWYQQLPGTAPKLLIYYDDLRPSGVPDRFSGSKSGTSASLAISGLRSEDEADYYCSAWDDSLSGVVFGGGTKLTVLGQPKAAPSVTLFPPSSEELQANKATLVCLISDFYPGAVTVAWKADSSPVKAGVETTTPSKQSNNKYAASSYLSLTPEQWKSHRSYSCQVTHEGSTVEKTVAPTECS
notes: hIgG1, Lambda (HS variant)
Efficacy (%), Stat3 reporter gene assay (rat IL-11 [7]): 98.5% | IC50, Stat3 reporter gene assay (rat IL-11 [7]): 1100 pM | Efficacy (%), Stat3 reporter gene assay (human IL-11 [8]): 98.4% | IC50, Stat3 reporter gene assay (human IL-11 [8]): 1500 pM | Efficacy (%), Stat3 reporter gene assay (murine IL-11 [9]): 96.2% | IC50, Stat3 reporter gene assay (murine IL-11 [9]): 660 pM | Efficacy (%), Stat3 reporter gene assay (cynomolgus IL-11 [10]): 97.5% | IC50, Stat3 reporter gene assay (cynomolgus IL-11 [10]): 290 pM | Efficacy (%) (murine IL-11 [11]): 101% | IC50 (murine IL-11 [11]): 110 pM | Kd (rat IL-11 [12]): 9 pM | Kd (human IL-11 [13]): 1.6 pM | Kd (murine IL-11 [14]): < 1 pM | Kd (cynomolgus IL-11 [15]): 350 pM | Efficacy (%) (human IL-11 [16]): 78.8% | IC50 (human IL-11 [16]): 7000 pM

B3: TPP-29536 (antibody, human IgG1, lambda)
heavy: EVQLLESGGGLVQPGGSLRLSCAASGFTFSSYGMHWVRQAPGKGLEWVAVISYDGSYKYYADSVKGRFTISRDNSKNTLYLQMNSLRAEDTAVYYCAAGVPDYWGQGTLVTVSSASTKGPSVFPLAPSSKSTSGGTAALGCLVKDYFPEPVTVSWNSGALTSGVHTFPAVLQSSGLYSLSSVVTVPSSSLGTQTYICNVNHKPSNTKVDKKVEPKSCDKTHTCPPCPAPPVAGPSVFLFPPKPKDTLMISRTPEVTCVVVGVSHEDPEVKFNWYVDGVEVHNAKTKPREEQYNSTYRVVSVLTVLHQDWLNGKEYKCKVSNKQLPSPIEKTISKAKGQPREPQVYTLPPSRDELTKNQVSLTCLVKGFYPSDIAVEWESNGQPENNYKTTPPVLDSDGSFFLYSKLTVDKSRWQQGNVFSCSVMHEALHNHYTQKSLSLSPGK
light: B1 light with T23S, A31S, G32D, N54E, A91S, D95S, N98S
notes: hIgG-lambda-HS (human IgG1 with Fc-silencing mutations)
IC50 (read off the curve) [17]: ~10000 pM
